Among all 410,000 compounds or so, about 310 (0.076%) were called active. This list was built around the results that the source calls inconclusive (neither active nor inactive); the mix of calls is not that of the screen. The call rests on the fitted dose curve; in most records, active means well fitted curve in the direction sought with a large enough effect; inconclusive means small, poorly fitted or top-dose-only effect; inactive means flat fitted curve, though single readings scatter. A potency beside an inconclusive call is a rough fit, not a confirmed value.
These compounds were tested against DNA dC->dU-editing enzyme APOBEC-3G (Homo sapiens) (UniProt Q9HC16) (assay: qHTS for Inhibitors of Vif-A3G Interactions: qHTS). Settings: HeLa A3G-eYFP + Vif (tagged APOBEC3G with the HIV-1 protein that degrades it), YFP fluorescence, overnight; series mostly up to 46.1 µM.
UniProt Q9HC16, sequence (Q9HC16 whole entry, looked up): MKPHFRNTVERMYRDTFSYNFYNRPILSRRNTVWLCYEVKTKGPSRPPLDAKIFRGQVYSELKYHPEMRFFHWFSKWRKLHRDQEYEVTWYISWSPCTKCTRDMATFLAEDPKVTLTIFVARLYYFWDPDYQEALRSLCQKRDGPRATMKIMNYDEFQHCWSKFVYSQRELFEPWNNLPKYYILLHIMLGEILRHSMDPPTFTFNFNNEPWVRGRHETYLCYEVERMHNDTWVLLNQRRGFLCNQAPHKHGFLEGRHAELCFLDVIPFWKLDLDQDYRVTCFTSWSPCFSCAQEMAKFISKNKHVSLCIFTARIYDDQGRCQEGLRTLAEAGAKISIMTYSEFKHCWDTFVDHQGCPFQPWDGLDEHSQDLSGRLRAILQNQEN
How it was run: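 HeLa cells stably expressing Vif and C-terminally eYFP-tagged A3G, seeded overnight at 37 deg C, then exposed to compound by pintool overnight at 37 deg C. Rise in yellow fluorescence (Ex 488/Em 500-530, Acumen) marks blocked Vif-driven A3G degradation.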
For CNc1ccc(/C=C/c2ccccc2)cc1, the Potency was inconclusive: 17.8 µM [inhibitor, single point]. With CCCOc1cccc(-c2nnc(NC(=O)c3ccco3)s2)c1 the Potency was inconclusive: 7.08 µM [inhibitor, full curve, poor fit]. For COc1ccc(NC(=O)CN(C)C(C)C(=O)N2CCCCC2)cc1 (configuration not stated), the Potency was inconclusive: 35.5 µM [inhibitor, single point]. For CCOC(=O)N(C)c1c(CC)nc2c(OCCC3CCCCC3)cccn12, the Potency was inconclusive: 35.5 µM [inhibitor, single point]. With S=C(Nc1cc(Cl)cc(Cl)c1)NC1CCN(Cc2ccccc2)CC1 the Potency was inconclusive: 35.5 µM [inhibitor, single point]. With CCCCN1C(=O)C(=O)c2cc(Cl)ccc21 the Potency was inconclusive: 35.5 µM [inhibitor, single point]. In the case of CCOC(=O)C1=C(N)n2c(s/c(=C/c3ccco3)c2=O)=C(C(=O)OC)C1c1ccco1 (configuration not stated), the Potency is reported as inconclusive: 8.91 µM [inhibitor, partial curve, poor fit]. In the case of CC1=CC(=O)C(Sc2ccc(C)cc2)=CC1=O, the Potency is reported as inconclusive: 20 µM [inhibitor, single point]. For Cc1cc(O)ccc1Nc1nc(-c2cccnc2)cs1, the Potency was “inactive”. With O=C(Nc1cccc2ncccc12)c1ccc([N+](=O)[O-])o1 the Potency was inconclusive: 12.6 µM [inhibitor, single point]. CSc1nnc(C)c(/C=C/Nc2ccc(C)cc2)n1 was tested, and the Potency was inconclusive: 22.4 µM [inhibitor, single point]. COc1cc(OC)nc(Oc2cc(/C=N/O)ccc2OC)n1 was tested, and the Potency was inconclusive: 17.8 µM [inhibitor, single point]. CCc1ccc(NC(=O)Cn2cnc3sc(C)c(S(=O)(=O)N4CCN(c5ccccc5OC)CC4)c3c2=O)cc1 was tested, and the Potency was “inactive”. For COc1c(Br)cc(Br)cc1/C=N/NC(=O)c1cccnc1, the Potency was inconclusive: 7.94 µM [inhibitor, partial curve, poor fit]. In the case of O=C1Nc2ccc(Br)cc2C1=C1CCCCC1, the Potency is reported as inconclusive: 22.4 µM [inhibitor, single point]. In the case of CC(C)C1N=C(c2ccc3c(c2)OCO3)CC(c2ccccc2O)N1 (configuration not stated), the Potency is reported as inconclusive: 15.8 µM [inhibitor, single point]. For COc1ccccc1[C@@H]1C(c2cccc(Cl)c2)=NN(c2ccccc2)[C@H]1C(=O)N1CCOC1=O, the Potency was “inactive”. In the case of CCN(c1ccccc1)S(=O)(=O)c1ccc(N)c(OC)c1, the Potency is reported as inconclusive: 11.2 µM [inhibitor, partial curve]. For COc1cccc(S(=O)(=O)Nc2ccc3c(c2)[C@@H]2C[C@@H](CC(=O)NCc4ccc(Cl)cc4)O[C@@H](CO)[C@@H]2O3)c1, the Potency was inconclusive: 3.16 µM [inhibitor, full curve]. In the case of Cc1cc(C)cc(OCCNC(=O)c2cc(S(=O)(=O)N3CCOCC3)ccc2F)c1, the Potency is reported as inconclusive: 31.6 µM [inhibitor, single point]. For CCOc1cccc(C(=O)NC(=S)Nc2ccc3c(c2)OCCO3)c1, the Potency was “inactive”. For COc1ccc(NC(=O)c2c[nH]n3c(=O)cc(C4CCN(C(=O)OC(C)(C)C)CC4)nc23)cc1Cl, the Potency was “inactive”. In the case of Cc1cccc(C(=O)Nc2ccccc2C(=O)OCc2cc(=O)n3nc(C4CC4)sc3n2)c1, the Potency is reported as “inactive”. For COc1ccc2ccccc2c1/C=N/NC(=S)Nc1cc(S(=O)(=O)N2CCOCC2)ccc1N1CCOCC1, the Potency was “inactive”. Cc1ccc(-c2cc(=O)c3cc(C)ccc3[nH]2)cc1 was tested, and the Potency was inconclusive: 11.2 µM [inhibitor, partial curve, poor fit]. With CCOc1ccc(C2CC(c3c(O)c4ccccc4oc3=O)=NN2c2ccccc2)cc1OC (configuration not stated) the Potency was inconclusive: 3.16 µM [inhibitor, partial curve, poor fit]. O=C(N=Nc1c(O)n(Cc2ccccc2)c2ccccc12)c1ccc(O)cc1 was tested, and the Potency was inconclusive: 15.8 µM [inhibitor, single point]. With O=C(NNC(=O)c1ccc(Oc2cc(Cl)cc(Cl)c2)o1)c1ccccc1 the Potency was inconclusive: 10 µM [inhibitor, partial curve, poor fit]. In the case of O=C(/C=C/c1cccnc1)c1cccc(O)c1, the Potency is reported as inconclusive: 22.4 µM [inhibitor, single point]. In the case of CCOc1ccc(-c2nonc2NC(=O)COc2ccccc2)cc1, the Potency is reported as “inactive”. CC1C/C(=C\c2cccnc2)C(=O)/C(=C/c2cccnc2)C1 (configuration not stated) was tested, and the Potency was inconclusive: 3.16 µM [inhibitor, partial curve, poor fit]. For COc1ccc(CCCNC(=O)C2(C)Cc3c(-c4ccc5c(c4)OCO5)ccnc3O2)cc1 (configuration not stated), the Potency was inconclusive: 3.98 µM [inhibitor, single point]. In the case of COC(=O)/C(=C\Nc1ccc(OC)cc1)NC(=O)c1ccc(Cl)cc1Cl, the Potency is reported as inconclusive: 25.1 µM [inhibitor, single point]. For N#CC1=C(N)Oc2cc(N)ccc2C1c1cccc(Br)c1 (configuration not stated), the Potency was inconclusive: 1.12 µM [inhibitor, full curve, poor fit]. CCc1cccc(C)c1NS(=O)(=O)c1ccc(-c2cc(C)no2)s1 was tested, and the Potency was inconclusive: 0.316 µM [inhibitor, full curve, poor fit]. For COc1ccc(C(=O)NCC(c2ccco2)S(=O)(=O)c2cccs2)cc1 (configuration not stated), the Potency was “inactive”. With Cc1ccc(/C=N/NC(=O)C2COc3ccccc3O2)s1 (configuration not stated) the Potency was inconclusive: 2 µM [inhibitor, full curve, poor fit]. With COc1cccc(/C=N/Nc2ncc(C(F)(F)F)cc2Cl)c1O the Potency was inconclusive: 25.1 µM [inhibitor, single point]. With Cc1ccc(C)c(Nc2nn3c(=O)c4ccc(C(=O)NCc5cccs5)cc4nc3s2)c1 the Potency was inconclusive: 12.6 µM [inhibitor, partial curve, poor fit]. For CC(=O)NC1=NN(C(C)=O)C(C)(c2ccccc2)S1 (configuration not stated), the Potency was inconclusive: 3.98 µM [inhibitor, full curve, poor fit]. With CCCOC(=O)c1cc(-c2ccc(C=O)o2)ccc1Cl the Potency was “inactive”. CCOc1ccccc1C(=O)N[C@H](C(=O)Nc1nc2c(s1)CCCC2)C(C)C was tested, and the Potency was inconclusive: 20 µM [inhibitor, single point].
Further: nearly all actives have a fitted effect of over 60% in size.
Potency means the concentration at half of the fitted maximal effect; tags describe the fitted curve by direction and shape.
